{
  "source": "PubChem BioAssay AID463173",
  "about": "(ICCB-Longwood Screening Facility, Harvard Medical School, 2010)",
  "note": "In all, about 52,000 compounds went through this assay and about 1,700 (3.3%) were called active. Rule as the data show it: active = survival mostly below about 52% (no sharp cut-off); inactive = mostly above about 56%. This is one part of the list.",
  "data": [
    {"test_system": "Wild type", "assay": "S. aureus survival, RN4220 and DeltatarO strains – OD600, teichoic acid synthesis inhibitors, primary screen (AID 463173)", "details": "S. aureus RN4220 wild type/DeltatarO growth, OD600, 18 h, hits give low values, screened at 18.75 µg/mL (by protocol)", "values": [
      {"compound": "COc1cccc(Cn2c(CNS(=O)(=O)c3ccc4c(c3)CCCC4)nc3cccnc32)c1", "survival": "inactive: 76%"},
      {"compound": "C=CCn1c(C(NC(=O)c2ccc(Cl)cc2Cl)C(C)C)n[nH]c1=S", "note": "(configuration not stated)", "survival": "inactive: 121%"},
      {"compound": "COc1ccc(Cl)cc1NC(=O)N1CC(=O)Nc2sc3c(c2C1c1ccccc1)CCCC3", "note": "(configuration not stated)", "survival": "inactive: 75%"},
      {"compound": "CCN(CC)C(=O)CSc1nc2ccccc2c(=O)n1Cc1ccco1", "survival": "inactive: 73%"},
      {"compound": "CC(=O)N(C)c1ccc(N=Nc2c(-c3ccccc3)[nH][nH]c2=O)cc1", "survival": "inactive: 119%"},
      {"compound": "Cc1nn(CCCC(=O)Nc2cccc(F)c2)c(=O)c2c1sc1ccccc12", "survival": "inactive: 55%"},
      {"compound": "COc1cc2c(C(=O)N(C)c3cc(Cl)ccc3OC)cn(CC(C)C)c(=O)c2cc1OC", "survival": "inactive: 89%"},
      {"compound": "CCN(C(=O)Cn1c(=O)n(CC2CCC(C(=O)NC)CC2)c(=O)c2sccc21)c1ccccc1", "note": "(configuration not stated)", "survival": "inactive: 88%"},
      {"compound": "COc1ccc(NC(=O)CN2C(=O)CCc3cc(S(=O)(=O)N4CCOCC4)ccc32)cc1Cl", "survival": "inactive: 75%"},
      {"compound": "S=C(Nc1ccccc1)NC1CC2CCCC(C1)N2C1CC1", "note": "(configuration not stated)", "survival": "inactive: 108%"},
      {"compound": "CC(C)NC(=O)/C=C/c1ccc2c(c1)OCO2", "survival": "inactive: 110%"},
      {"compound": "O=C(Nc1ccccc1)c1cn(-c2ccccc2)nc1-c1ccccc1", "survival": "inactive: 86%"},
      {"compound": "Cc1cccc(-n2c3nc(=O)[nH]c(=O)c-3cc3c(C)nn(-c4ccccc4)c32)c1C", "survival": "inactive: 80%"},
      {"compound": "COc1ccccc1NC(=O)CSC1=Nc2ccccc2N=C(c2ccc(F)cc2)C1", "survival": "inactive: 71%"},
      {"compound": "COc1ccc(Cn2ccc3nc(C)c(C(=O)Nc4ccc(OC(F)(F)F)cc4)cc3c2=O)cc1", "survival": "inactive: 90%"},
      {"compound": "CCOC(=O)c1c(Nc2cc(C)cc(C)c2)nnc(-c2ccccc2)c1-c1ccccc1", "survival": "inactive: 38%"},
      {"compound": "CSc1ccc(CNC(=O)c2cc3cc(S(=O)(=O)N4CCCCC4)ccc3n2C)cc1", "survival": "inactive: 76%"},
      {"compound": "CCCCC(=O)OC1=C(C(=O)c2ccccc2)N(CC)S(=O)(=O)c2ccccc21", "survival": "inactive: 71%"},
      {"compound": "N#CC(C#N)=C(N1CCOCC1)C(F)(F)F", "survival": "inactive: 108%"},
      {"compound": "COc1cccc(CNC(=O)C2CCN(S(=O)(=O)N3CCC(C)CC3)CC2)c1", "survival": "inactive: 76%"},
      {"compound": "CC1CCN(S(=O)(=O)c2ccc3nc(Nc4ccc(C#N)cc4)ccc3c2)CC1", "survival": "inactive: 68%"},
      {"compound": "Cc1cccc(OCCSc2nc(-c3cccs3)nc3cc(=O)[nH]n23)c1", "survival": "inactive: 66%"},
      {"compound": "COc1ccccc1N1CCN(S(=O)(=O)c2c(C)nc3sc(C)c(C)n3c2=O)CC1", "survival": "inactive: 85%"},
      {"compound": "COc1ccccc1CNS(=O)(=O)c1ccc(F)c(C(=O)Nc2cc(Cl)ccc2OC)c1", "survival": "inactive: 127%"},
      {"compound": "O=C(NCC(c1cccnc1)N1CCc2ccccc2C1)C(=O)Nc1ccccc1", "note": "(configuration not stated)", "survival": "inactive: 84%"},
      {"compound": "COC(=O)C1=CN(CCCN2CCCC2=O)C=C(C(=O)OC)C1c1cccc(F)c1", "survival": "inactive: 104%"},
      {"compound": "COc1cccc2c1Oc1ncccc1N(C(=O)Nc1cccc(Cl)c1)C2", "survival": "inactive: 71%"},
      {"compound": "Cn1nc(-c2ccc(C(=O)Nc3cccc(C(F)(F)F)c3)cc2)c2ccccc2c1=O", "survival": "inactive: 69%"},
      {"compound": "CC(=O)NC1C(=O)N=C(SCC(=O)NC(C)c2ccccc2)NC1=O", "note": "(configuration not stated)", "survival": "inactive: 108%"},
      {"compound": "CCCCC(=O)OC1=C(C(=O)c2ccccc2)N(C)S(=O)(=O)c2ccccc21", "survival": "inactive: 108%"},
      {"compound": "COc1ccc(CNS(=O)(=O)c2cnc(N)nc2)cc1", "survival": "active: -4%"},
      {"compound": "CCOc1ccc(NS(=O)(=O)c2ccc3[nH]cc(C(=O)NCc4ccccc4)c(=O)c3c2)cc1", "survival": "inactive: 74%"},
      {"compound": "Cc1cccc(CNC(=O)c2ccc3c(c2)N(C)C(=O)C2CCCCN32)c1", "note": "(configuration not stated)", "survival": "active: -3%"},
      {"compound": "O=C(Nc1ccc(F)cc1F)c1cnn(-c2ccc(F)cc2)c1-n1cccc1", "survival": "inactive: 73%"},
      {"compound": "CCOc1ccccc1NC(=O)CN1c2ccccc2S(=O)(=O)c2ccccc21", "survival": "active: 10%"},
      {"compound": "Cc1ccc(CNC(=O)c2cc(S(=O)(=O)N3CCCCCC3)cn2C)cc1", "survival": "inactive: 81%"},
      {"compound": "Cc1nn(C)c(C)c1S(=O)(=O)N(CC(=O)N1CCN(c2ccccc2)CC1)c1ccc(C(C)C)cc1", "survival": "inactive: 82%"},
      {"compound": "CCOc1ccccc1NC(=O)C1CCN(S(=O)(=O)c2ccc3[nH]c4c(c3c2)CCCCC4)CC1", "survival": "inactive: 70%"},
      {"compound": "Cc1ccc(C)c(NC(=O)Cn2c(=O)ccc3cc(S(=O)(=O)N4CCCC4)ccc32)c1", "survival": "inactive: 75%"},
      {"compound": "O=C(NCc1cccs1)c1ccc(CSc2nc3cccnc3n2Cc2ccccc2)cc1", "survival": "inactive: 101%"},
      {"compound": "O=C1C2=C(Nc3ccccc3SC2c2ccccc2C(F)(F)F)c2ccccc21", "note": "(configuration not stated)", "survival": "active: 11%"},
      {"compound": "Cc1cc(C)n(-c2nnc(Nc3cc(Cl)ccc3C)c3ccccc23)n1", "survival": "inactive: 74%"},
      {"compound": "COc1ccccc1NC(=O)c1cc2c([nH]c1=O)CC(C)(C)CC2=O", "survival": "inactive: 61%"},
      {"compound": "CCCCCNC(=O)c1ccc2c(c1)nc(C)n2-c1cccc(C)c1", "survival": "active: -2%"},
      {"compound": "O=C(CCn1c(=O)c2cccn2c2ccccc21)Nc1ccc(F)cc1", "survival": "inactive: 67%"},
      {"compound": "O=C(NCc1ccccc1Cl)C1COc2ccccc2O1", "note": "(configuration not stated)", "survival": "inactive: 118%"},
      {"compound": "Cc1ccccc1NC(=O)c1ccc(F)c(S(=O)(=O)N(C)C2CCCCC2)c1", "survival": "inactive: 117%"},
      {"compound": "COc1ccc(NC(=O)c2sc3nc4c(cc3c2N)CCCCCC4)cc1OC", "survival": "inactive: 83%"},
      {"compound": "Cc1nc(-c2ccc(C)c(S(=O)(=O)N3CCC(C(=O)Nc4ccc(Cl)cc4)CC3)c2)no1", "survival": "inactive: 121%"},
      {"compound": "O=C(Nc1ccccc1N1CCN(c2ccccc2)CC1)c1ccccc1", "survival": "inactive: 110%"},
      {"compound": "CCC1CCCCN1CCCNC(=O)c1cc2c(=O)n(CC)c3ccccc3c2s1", "note": "(configuration not stated)", "survival": "inactive: 87%"},
      {"compound": "COc1ccc(NC(=O)C2CCCN(S(=O)(=O)c3cccs3)C2)cc1", "note": "(configuration not stated)", "survival": "inactive: 88%"},
      {"compound": "CC1Cc2cc(S(=O)(=O)N(C)c3ccc(Br)cc3)ccc2N1C(=O)C1CC1", "note": "(configuration not stated)", "survival": "inactive: 106%"},
      {"compound": "Fc1ccc(Cc2cn3cc(-c4ccc(Cl)cc4)nc3s2)cc1", "survival": "inactive: 85%"},
      {"compound": "N#C/C(=C/c1ccc(Cl)cc1Cl)c1nc2ccccc2c(=O)[nH]1", "survival": "inactive: 75%"},
      {"compound": "O=c1[nH]c(O)c(C=NCCCn2ccnc2)c(=O)[nH]1", "survival": "inactive: 106%"},
      {"compound": "COc1ccc(CNC(=O)C2CCN(S(=O)(=O)c3ccc(C)cc3)CC2)cc1", "survival": "inactive: 78%"}
    ]}
  ]
}
